Measured values reported in paper PMC5440653, “SorLA in Interleukin-6 Signaling and Turnover” (Molecular and Cellular Biology, 2017).

How the values were obtained:
[1] = target: T1, soluble SorLA (SorLA ectodomain, luminal part) (human, UniProt Q92673 82-2137); test: cell-based or functional assay
[2] = target: T1, soluble SorLA (SorLA ectodomain, …); test: SPR; Biacore 3000, CM5 chip; purified soluble receptor immobilized (66 to 86 fmol/mm^2), ligand injected at 5 ul/min, 25°C, 10 mM HEPES, 150 mM NaCl, 1.5 mM CaCl2, 1 mM EGTA, 0.005% Tween 20, pH 7.4; Langmuir 1:1 model, global fitting; details: both partners purified

T1 sequence (Q92673 82-2137): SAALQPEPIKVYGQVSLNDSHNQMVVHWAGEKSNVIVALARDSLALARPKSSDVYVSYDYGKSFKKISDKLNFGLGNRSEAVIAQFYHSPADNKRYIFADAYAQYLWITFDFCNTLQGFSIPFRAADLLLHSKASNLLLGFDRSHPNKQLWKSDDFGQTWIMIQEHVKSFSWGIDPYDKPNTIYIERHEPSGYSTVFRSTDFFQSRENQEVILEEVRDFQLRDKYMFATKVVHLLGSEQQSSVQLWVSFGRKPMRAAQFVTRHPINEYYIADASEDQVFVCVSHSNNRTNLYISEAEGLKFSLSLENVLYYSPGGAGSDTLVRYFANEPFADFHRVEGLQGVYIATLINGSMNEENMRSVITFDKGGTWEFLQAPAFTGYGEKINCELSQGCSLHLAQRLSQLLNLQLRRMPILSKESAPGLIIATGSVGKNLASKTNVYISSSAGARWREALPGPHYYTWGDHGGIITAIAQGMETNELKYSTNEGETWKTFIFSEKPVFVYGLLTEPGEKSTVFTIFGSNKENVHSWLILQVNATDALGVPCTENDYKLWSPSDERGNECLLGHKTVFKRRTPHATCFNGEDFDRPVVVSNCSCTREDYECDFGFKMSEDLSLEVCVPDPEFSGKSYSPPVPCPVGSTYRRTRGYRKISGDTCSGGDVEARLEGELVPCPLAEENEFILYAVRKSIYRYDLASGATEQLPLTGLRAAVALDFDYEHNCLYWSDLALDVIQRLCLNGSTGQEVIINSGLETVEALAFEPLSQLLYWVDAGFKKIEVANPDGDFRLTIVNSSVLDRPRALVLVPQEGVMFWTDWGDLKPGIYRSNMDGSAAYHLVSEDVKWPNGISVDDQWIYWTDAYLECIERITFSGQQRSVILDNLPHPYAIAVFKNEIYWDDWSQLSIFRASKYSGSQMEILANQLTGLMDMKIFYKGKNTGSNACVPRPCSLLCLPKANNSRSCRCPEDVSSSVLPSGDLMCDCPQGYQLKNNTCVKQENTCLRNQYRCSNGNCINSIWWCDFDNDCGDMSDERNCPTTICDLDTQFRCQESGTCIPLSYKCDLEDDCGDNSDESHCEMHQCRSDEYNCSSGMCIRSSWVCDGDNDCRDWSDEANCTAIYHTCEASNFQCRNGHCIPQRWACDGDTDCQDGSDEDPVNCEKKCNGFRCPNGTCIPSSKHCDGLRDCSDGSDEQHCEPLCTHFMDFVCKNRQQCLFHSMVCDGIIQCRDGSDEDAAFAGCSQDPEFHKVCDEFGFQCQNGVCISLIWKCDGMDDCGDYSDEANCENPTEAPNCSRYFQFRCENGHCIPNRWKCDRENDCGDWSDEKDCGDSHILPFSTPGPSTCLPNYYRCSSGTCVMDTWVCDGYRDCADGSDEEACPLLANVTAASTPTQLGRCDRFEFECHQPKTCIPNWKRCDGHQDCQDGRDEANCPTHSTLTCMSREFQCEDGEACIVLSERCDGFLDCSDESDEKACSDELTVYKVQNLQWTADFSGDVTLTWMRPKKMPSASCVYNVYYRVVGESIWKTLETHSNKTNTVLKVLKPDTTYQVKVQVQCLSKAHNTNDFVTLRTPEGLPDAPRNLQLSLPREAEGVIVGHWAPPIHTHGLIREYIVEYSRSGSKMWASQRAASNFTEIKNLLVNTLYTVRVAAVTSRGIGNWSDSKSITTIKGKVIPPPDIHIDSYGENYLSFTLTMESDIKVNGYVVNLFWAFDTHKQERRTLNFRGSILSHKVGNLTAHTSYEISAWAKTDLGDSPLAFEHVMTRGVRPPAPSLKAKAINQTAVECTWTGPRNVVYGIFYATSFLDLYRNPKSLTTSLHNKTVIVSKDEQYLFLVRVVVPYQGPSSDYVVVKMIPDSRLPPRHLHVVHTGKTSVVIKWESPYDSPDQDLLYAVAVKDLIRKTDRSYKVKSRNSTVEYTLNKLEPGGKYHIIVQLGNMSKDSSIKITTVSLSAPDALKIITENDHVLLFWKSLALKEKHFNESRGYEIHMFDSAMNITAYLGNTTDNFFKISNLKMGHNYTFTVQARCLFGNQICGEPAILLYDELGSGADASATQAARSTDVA

pSTAT3 (Western blot) in BA/F3 cells expressing gp130, 15 min; sSorLA:IL-6 (40 nM:5 nM, coincubated 3 h at room temperature) with sIL-6R (5 nM), against IL-6 and sIL-6R (5 nM each) [1]: ~3 fold
Kd [2]: ~29 nM
B1: Interleukin-6 (ligand)
chain: not shown
notes: interleukin-6, human, recombinant; also called IL-6; recombinant human IL-6; source: bought: Millipore
